PubChem BioAssay AID493208 (National Center for Advancing Translational Sciences (NCATS), 2011)
Among all 44,000 compounds or so, about 340 (0.77%) were called active. Another 5% or so got no clear call; they are omitted. Calls follow the shape of the dose curve; as a rule, active = well fitted inhibition curve with a large enough effect; inconclusive = small, poorly fitted or top-dose-only effect; inactive = flat fitted curve, though single readings scatter. The list shows a part of the results.

Assay: Acumen qHTS Assay for Inhibitors of the mTORC1 Signaling Pathway in MEF (Tsc2-/-, p53-/-) Cells: Sytravon;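 also: plate controls were DMSO for no effect and rapamycin for full effect; nearly all actives have a fitted effect of over 50% in size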
Details: phospho-rpS6 immunofluorescence/PI, 24 h; series mostly up to 38.3 µM; activity change, negative = inhibition: at the top concentration
Method in brief: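 Tsc2-/-, p53-/- MEFs (empty-vector stable line) in DMEM + 10% FBS were treated with compounds 24 h at 37 degree Celsius, fixed, and immunostained for phospho-rpS6 (Alexa-488) with propidium iodide counterstain. Laser-scanning cytometry gave % positive cells, normalized against 7.5 nM rapamycin and DMSO.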

Activity change, negative = inhibition, inactive:
Fc1ccc(Nc2ncnc3onc(-c4cccc(Cl)c4)c23)c(F)c1 -1.8%, Cc1ccc(S(=O)(=O)NC2(C(F)(F)F)NC(=O)N(CCc3ccccc3)C2=O)cc1 (configuration not stated) -6.34%, O=C(NCCn1cc(SCc2ccccc2Cl)c2ccccc21)c1cccs1 -1.64%, Cc1cc(C)cc(NC(=O)Cn2cc(S(=O)(=O)NC(C)(C)C)c(S(=O)(=O)NC(C)(C)C)c2)c1 -0.115%, CCOc1ccccc1NC(=O)CSc1nnc2[nH]c(=O)cc(-c3ccccc3)n12 -1.06%, O=C(Nc1ccccc1Cl)C1CCN(c2nc3ccccc3nc2C(F)(F)F)CC1 3.15%, COc1ccc(CNC(=O)CN2C(=O)COc3ccc(S(=O)(=O)Nc4ccccc4)cc32)cc1 -11.8%, CCOC(=O)c1cc2c(=O)n3ccccc3nc2n(C(C)C)c1=NC(=O)c1cc2ccccc2o1 -3.25%, COc1ccc(-n2nc(C(=O)N3CCCC(C)C3)c3c4ccccc4n(C)c3c2=O)cc1 (configuration not stated) 2.03%, CCc1ccc(C(=O)c2cn(CC(=O)NC3CCCCC3)c3nc(C)ccc3c2=O)cc1 -5.11%, O=C(c1ccccc1)n1nc(-c2ccccc2)nc1NCc1ccc(F)cc1 -3.11%, O=C(Nc1ccc(F)c(F)c1)c1cc(S(=O)(=O)NC2CCCCCC2)ccc1F 5.9%, CCOc1ccc(N2CC(NC(=O)/C=C\c3ccc4c(c3)OCO4)CC2=O)cc1 (configuration not stated) 0.434%, COc1ccc(-n2ccnc(NCc3ccccc3OC)c2=O)cc1 -19.4%, CNC(=O)c1c(NC(=O)c2ccc(S(=O)(=O)N3CCCCC3)cc2)sc2c1CCC2 2.57%, CSc1nc2c(c(=O)[nH]1)C(c1cccc(F)c1F)CC(=O)N2 (configuration not stated) -2.04%, NS(=O)(=O)c1ccc(CCNc2nccn(-c3cccc(C(F)(F)F)c3)c2=O)cc1 3.69%, O=S(=O)(Nc1cc(F)ccc1F)c1ccc2[nH]c3c(c2c1)CCCC3 -4.77%, CC(C)(C)C(=O)Nc1ccc2nc(SCC(=O)N3CCOCC3)sc2c1 -0.713%, COc1cccc(CNC(=O)c2ccc3c(c2)c(C)c(C)n3Cc2ccccc2)c1OC -7.37%, CC(C)c1ccc(NC(=O)CS(=O)(=O)c2cccc3nsnc23)cc1 -3.19%, CCCCN(CCCC)CCNC(=O)Cn1nc(C)n2c(cc3sccc32)c1=O 0.338%, Cc1cc(-c2nc3ncccc3o2)ccc1NC(=O)COc1ccccc1C 0.218%, CCOC(=O)c1ccccc1NC(=O)CSc1ccc(-c2cccs2)nn1 -8.76%, Cc1ccc2occ(CC(=O)N(Cc3ccc(Cl)cc3)C3CCS(=O)(=O)C3)c2c1 (configuration not stated) 0.927%, COc1ccc(-c2cc(C(F)(F)F)nc(SCCC(=O)Nc3ccccc3F)n2)cc1 0.636%, O=c1c2oc3ccccc3c2n(Cc2cccc(Cl)c2)c(=O)n1Cc1ccco1 1.85%, O=C(Cc1ccccc1)NC1CC(=O)N(c2ccccc2)C1 (configuration not stated) -4.28%, CCc1ccc(Nc2nn(-c3ccc(OC(F)(F)F)cc3)nc2C(C)=O)cc1 2.88%, Cn1cc(S(=O)(=O)c2cccc(Cl)c2)c(=O)c2cc(F)c(N3CCN(c4ccc(F)cc4)CC3)cc21 -1.1%, Cc1ccc(-c2noc(CNS(=O)(=O)c3ccc(F)cc3)n2)cc1 4.95%, Cc1cccc(OCC(=O)Nc2nc3c(s2)CC(C(C)(C)C)CC3)c1C (configuration not stated) 0.33%, COc1ccccc1N1CCN(C(=O)CN2C(=O)COc3ccc(S(=O)(=O)N4CCCCCC4)cc32)CC1 1.22%, CCN(CC)c1ccc(NC(=O)c2cnc3c(-c4ccccc4)c(C)nn3c2C)c(C)c1 0%, Cc1c(NC(=O)c2cc(-c3ccc(F)cc3)on2)c(=O)n(-c2ccccc2)n1C -2.45%, Cc1nnc(N2CCN(C(=O)NC(C)C)CC2)c2nn(-c3ccccc3)c(C)c12 -2.85%, Cc1c(C(=O)N(Cc2cccc(F)c2)C2CCS(=O)(=O)C2)oc2cc(Br)ccc12 (configuration not stated) 0.329%, COc1ccc(NC(=O)CN2C(=O)C3(SCC(=O)N3c3ccccc3)c3ccccc32)cc1Cl (configuration not stated) 2.53%, COc1ccc(CNC(=O)c2cccc(N3CCCS3(=O)=O)c2)cc1OC -10.4%, CC(C)c1ccc(NC(=O)c2ccc(Cn3nc(N4CCN(c5ccccc5)CC4)ccc3=O)o2)cc1 -11.3%, O=C(Cn1ncn2nc(-c3cccs3)cc2c1=O)NCc1ccccc1Cl -0.526%, CCn1c(=NC(=O)c2ccc(S(=O)(=O)N3CCCC3)cc2)sc2cc(Br)ccc21 5.6%, CCOC(=O)c1c(C)c(-c2ccccc2)n(CC(=O)NC2CCCCCC2)c1C -1.94%, COc1cccc(NC(=O)Cn2cc(C(=O)c3ccc(F)cc3)c(=O)c3cc(OC)ccc32)c1 -19.1%, Cc1cccc(Cn2cnc3c(oc4ccccc43)c2=O)c1 -1.11%, COc1ccc(-c2c(C)nn3c(N4CCN(c5ccccc5F)CC4)cc(C)nc23)cc1OC 0.947%, CCc1c(C)sc2c1CCN(C(=O)Nc1cc(C)ccc1OC)C2c1ccc(F)cc1 (configuration not stated) 7.32%, Cc1ccc(NS(=O)(=O)c2ccc3[nH]c4c(c3c2)CCCCCC4)cc1 -0.926%, CCN1CCN(C(c2ccccc2F)c2c(O)cc(C)n(CCOC)c2=O)CC1 (configuration not stated) -0.904%, N#Cc1ccc(NC2=NS(=O)(=O)c3ccccc32)cc1 -3.04%, Cc1cc(C)cc(NC(=O)N2CCC(CN3CCc4ccccc4C3)CC2)c1 -3.44%, CCC(=O)N1CCc2cc(CNS(=O)(=O)c3ccc(Br)s3)ccc21 2.04%, Cc1ccc(C)c(N2C(=O)N(C)c3ccccc3S2(=O)=O)c1 -4.32%, COC(=O)c1c(NC(=O)c2nc(SCc3ccccc3C)ncc2Cl)sc2c1CCCC2 0.616%, COc1ccc(-n2c(C)nc3cc(C(=O)NC4CCCCCC4)ccc32)cc1 -4.3%, CCCN(CCC)CCNC(=O)c1sc2nc3n(c(=O)c2c1C)CCCCC3 2.89%, CC1CCCN(S(=O)(=O)c2ccc(N3CCCCS3(=O)=O)cc2)C1 (configuration not stated) 0%, CCN(C(=O)Cn1c(=O)nc(-c2ccccc2)c2cc(Cl)ccc21)c1cccc(C)c1 0%, CCOc1ccccc1CNC(=O)c1cnc2sc(N3CCOCC3)nn2c1=O 0.463%, CCOc1ccc(CCNC(=O)Cn2ncc3c([nH]c4ccccc43)c2=O)cc1OCC -0.522%, Cc1cncn1CCc1nc2c3ccccc3nc(SCC(=O)Nc3ccc(F)cc3)n2n1 0.16%, CCc1cccc(NC(=O)C2CCC(CNS(=O)(=O)c3ccc4c(c3)CCCC(=O)N4)CC2)c1 (configuration not stated) -2.48%, CCc1nc2ccc(C(=O)NCc3ccc(SC)cc3)cc2nc1CC -6.6%, OCCN1CCN(C(c2ccc(Cl)cc2Cl)c2sc3nc(-c4ccco4)nn3c2O)CC1 (configuration not stated) -1.32%, Clc1ccccc1-c1nnc(-c2ccccc2CNc2ccc(Br)cc2)o1 0.954%, CCOc1ccc(-n2c(SCC(=O)Nc3ccc4c(c3)OCCO4)nc3c([nH]c4ccccc43)c2=O)cc1 -0.428%, COc1ccc(-c2cc(OC(=O)c3ccccc3)c3c(C)oc(C)c3c(=O)c2)cc1OC -7.77%, CC(C)c1ccc2c(c1)NC(c1ccncc1)=NC(c1cccs1)=N2 -18.6%, CCc1cccc(NC(=O)C(NS(=O)(=O)c2ccc3nc(C)sc3c2)C(C)C)c1 (configuration not stated) -0.0585%, C#CCSc1nc(-c2ccccc2)c2cc(Cl)ccc2n1 0.265%, CCOc1ccccc1NC(=O)CCc1c(C)nc2c(c(C)nn2-c2ccccc2)c1C 0.838%, Cc1ccc(Cl)cc1N1CCN(C(=O)c2ccc3c(c2)N(Cc2ccccc2F)C(=O)c2ccccc2S3=O)CC1 (configuration not stated) -5.8%, O=C(CCS(=O)(=O)c1cc(Br)cc2c1N(C(=O)C1CC1)CC2)Nc1ccc(F)cc1 -5.27%, Cc1ccc(CNC(=O)c2sc3nc(-c4ccccc4)cn3c2C)cc1 -2.35%, O=C(NCc1ccc(F)cc1)c1ccc(Cn2c(SCc3ccc(F)cc3)nc3cccnc32)cc1 -1.56%, CCCN1C(=O)c2[nH]nc(-c3cccc(OC)c3)c2C1c1ccccn1 (configuration not stated) 2%, CC(C)Cn1c(=O)c2ccccc2n2c(CCC(=O)NCc3ccc(Cl)cc3)nnc12 -3.86%, Cn1nnc2c(NCc3ccccc3)ncnc21 -0.184%, Cc1cc(C)cc(-n2c(C)nc3cc(C(=O)NCc4ccc(F)cc4)ccc32)c1 -9.54%, O=C(CCC(=O)N1CCSc2ccccc21)NCc1ccccc1Cl -4.46%, CCOc1ccc(CCNC(=O)c2cn(-c3cccc(OC)c3)c(=O)c3ccccc23)cc1 -1.26%, CCC(C)NC(=O)c1ccc2c(c1)N(Cc1ccccc1F)C(=O)c1ccccc1S2=O (configuration not stated) -9.49%, CCCCn1c(=N)c(C(=O)NC2CCCCC2)cc2c(=O)n3cccc(C)c3nc21 -6.41%, Cn1c(=O)oc2cc(S(=O)(=O)NCCC(=O)NCc3ccc(F)cc3)ccc21 -2.29%, Cc1ccc(C(C)C)c(OCCCn2c(=O)oc3ccccc32)c1 -9.07%, CC(CNS(=O)(=O)c1ccc2c(c1)CC(=O)N2C)c1ccccc1 (configuration not stated) -6.75%, CCOC(=O)c1c(C)oc2nc(C)nc(NCCCN3CCN(c4ccc(F)cc4)CC3)c12 7.16%, COc1ccccc1NC(=O)c1ccc2oc(=O)c(S(=O)(=O)c3ccccc3)cc2c1 -12.5%, COc1ccc(C(=O)NCCn2cc(SCc3cc(C)ccc3C)c3ccccc32)cc1 -16.4%, Cc1cc(N2CCN(c3cccc(C)c3C)CC2)n2nc(C)c(-c3ccc(Cl)cc3)c2n1 -0.879%, CCOc1ccc(C2c3c(oc4ccccc4c3=O)C(=O)N2c2nnc(C)s2)cc1OC (configuration not stated) -13.5%, COc1ccc(-n2c(-c3ccco3)nc3c(cnn3-c3ccccc3C)c2=O)cc1 -0.0309%, Cc1ccccc1CNC(=O)c1cc2cc(S(=O)(=O)N3CCCCC3)ccc2n1C 4.32%, Cc1cccc(Cn2cnc3c(cnn3-c3ccc(Cl)cc3)c2=O)c1 -9.95%, Cc1cc(C)n2c(Nc3ccccc3)c(-c3ccccc3)nc2n1 3.56%, Cc1cc(C)c2oc(C(=O)Nc3ccc(S(=O)(=O)N4CCC(C)CC4)cc3)cc(=O)c2c1 4.06%, Cc1ccc(CN2CCN(C3CCN(C(=O)Nc4ccccc4C(F)(F)F)CC3)C(=O)C2=O)cc1 1.13%
